# Inconclusive results, whose numbers are uncertain, are shown with a selection of clear calls. For some assays here: Potencies of inconclusive entries are left out as doubtful fits. A structure can be active in one record and inactive in another. The source made the active and inactive calls. Unless noted, the call rests on the fitted dose curve; in most records, active means well fitted curve in the direction sought with a large enough effect in the repeat runs; inconclusive means weak or mixed curves; inactive means no such curve, though single readings can be large; an effect the other way counts as inactive or inconclusive.
# How the values were obtained:
# [1] = qHTS assay to identify small molecule HDAC inhibitors (AID 1259364); further: nearly all actives have a fitted effect of over 45% in size; further: potency means the concentration at half of the fitted maximal effect
# Outline: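 Wild-type HCT-116 cells were plated overnight, exposed to compounds for 2 h at 37 °C, then given HDAC-Glo class I/II luminogenic reagent for 30 min at room temperature before luminescence was read.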
# [2] = qHTS assay for small molecule activators of the heat shock response signaling pathway - cell viability counter screen (AID 743209); details: HSE-bla HeLa viability, CellTiter-Glo luminescence, 5 h; activity change, negative = cytotoxicity: at 62.6 µM (top of the series) unless noted; further: nearly all actives have a fitted effect of over 50% in size; further: potency means the concentration at half of the fitted maximal effect
# Outline: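 CellSensor HSE-bla HeLa cells, plated overnight at 37 C/5% CO2, were exposed to compounds in DMSO for 5 h at 37 C. Viability was then read in the same wells by CellTiter-Glo luminescence after 30 min at room temperature.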
# [3] = target: Thyrotropin-releasing hormone receptor (Homo sapiens) (UniProt P34981); assay: qHTS assay to identify small molecule agonists of the thyrotropin-releasing hormone receptor (TRHR) signaling pathway (AID 1346891; calls by dose curve; further: on the % scale 0 is the no-effect control and ±100 the full control effect)
# Outline: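 In 1536-format, 1500 TRHR-Hek293 cells per well grew 18 h, took up calcium dye for 2 h at 37 °C, received compound, and were read kinetically; 15-point titrations, triplicates.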
# [4] = target: Thyrotropin-releasing hormone receptor (Homo sapiens) (UniProt P34981); assay: qHTS assay to identify small molecule antagonists of the thyrotropin-releasing hormone receptor (TRHR) signaling pathway (AID 1346877; active means well fitted inhibition curve with a large enough effect in the repeat runs, not every such curve was filed as active; inconclusive means weak or mixed curves; further: on the % scale 0 is the no-effect control and ±100 the full control effect)
# Outline: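 TRHR-expressing HEK293 cells were seeded, cultured 18 h at 37 °C, then loaded with calcium dye for 2 h. Compounds were pre-incubated 5 min at room temperature before 1 nM TRH (final) was added, and kinetic fluorescence was recorded for 3 min.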
# [5] = qHTS RealTime-Glo MT Cell Viability Assay in HepG2 cells - 16 hour (AID 1224885); further: nearly all actives have a fitted effect of over 50% in size; further: potency means the concentration at half of the fitted maximal effect
# Outline: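 HepG2 suspension premixed with RealTime-Glo reagents is plated at 600 cells per well and left 5 h at 37 C/5% CO2. Compounds in DMSO then go in, and bioluminescence reflecting viable cell number is recorded over 40 h.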
# [6] = qHTS assay to test for compound auto fluorescence at 460 nm (blue) in HepG2 cell free culture (AID 720685); further: on the % scale 0 is the no-effect control and ±100 the full control effect
# Outline: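 Compound (23 nL) or DMSO pinned into cell-free MEM with 10% FBS; blue fluorescence read at 405/460 nm excitation/emission, expressed as auto-fluorescence equivalency to triamterene.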
# [7] = target: Estrogen receptor (Homo sapiens) (UniProt P03372); assay: qHTS assay to identify small molecule agonists of the estrogen receptor alpha (ER-alpha) signaling pathway in the presence of an antagonist (AID 1259383; calls by dose curve; further: top concentration of the series differs between compounds; on the % scale 0 is the no-effect control and ±100 the full control effect; nearly all actives have a fitted effect of over 15% in size)
# Outline: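 VM7Luc4E2 cells (endogenous full-length ER-alpha, 4×ERE-luciferase) were precultured 5 days in phenol red-free medium with 10% charcoal-stripped FBS, given 10.0nM ICI-182,780 (final), then treated with compounds at 15 concentrations for 22hr at 37C; luminescence read with ONE-Glo.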
# [8] = qHTS assay to identify small molecule that activate the aryl hydrocarbon receptor (AhR) signaling pathway - cell viability counter screen (AID 743086); further: nearly all actives have a fitted effect of over 45% in size; further: potency means the concentration at half of the fitted maximal effect
# Outline: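 HepG2-AhR-luc (HG2L7.5c1) cells, 4000/well, were preincubated 5 h at 37C, exposed to compound in qHTS format for 24 hr at 37C, then given CellTiter-Fluor for 30 min; viability was read as fluorescence in the reporter wells.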
# [9] = qHTS assay to identify small molecule phospholipidosis (PLD) inducers (AID 1259344; active means well fitted curve in the direction sought with a large enough effect; inconclusive means small, poorly fitted or top-dose-only effect, or another doubt; inactive means no such curve, though single readings can be large; an effect the other way counts as inactive or inconclusive; further: on the % scale 0 is the no-effect control and ±100 the full control effect); details: HepG2 phospholipidosis, LipidTOX Red imaging, 24 h; PLD induction: at 38.3 µM (top of the series) unless noted
# Outline: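 HepG2 cells on collagen I, attached 4 h at 37 C, were co-treated with compound and LipidTOX Red dye for 24 h at 37 C, then fixed with paraformaldehyde plus Hoechst 33342 and imaged by high-content microscopy for phospholipid accumulation.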
# [10] = qHTS assay for small molecule disruptors of the mitochondrial membrane potential - cell viability (AID 720634; calls by dose curve;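 further: human HepG2 liver cancer cells; on the % scale 0 is the no-effect control and ±100 the full control effect; nearly all actives have a fitted effect of over 20% in size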)
# Outline: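 HepG2 cells seeded overnight at 37 C, then exposed to compound or DMSO for 1 hr at 37 C, 5% CO2. m-MPI dye added, then CellTiter-Glo for 30 min at room temperature; viability read as ATP luminescence.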
# [11] = qHTS assay for small molecule agonists of the p53 signaling pathway - cell viability (AID 651633; calls by dose curve; further: nearly all actives have a fitted effect of over 30% in size; further: potency means the concentration at half of the fitted maximal effect)
# Outline: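 p53RE-bla cells, seeded at 4,000 per well and rested 5 h at 37 C/5% CO2, received compounds in DMSO for 16 h at 37 C. CellTiter-Glo was then added, and luminescence was read after 30 min at room temperature to gauge cytotoxicity.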
# [12] = qHTS assay to identify small molecule agonists of the estrogen related receptor (ERR) signaling pathway from Tox21 library (AID 1224849; calls by dose curve; further: on the % scale 0 is the no-effect control and ±100 the full control effect; nearly all actives have a fitted effect of over 15% in size); details: ERR reporter cell line, ONE-Glo luciferase, 18 h; at 92.4 µM (top of the series) unless noted
# Outline: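 ERR reporter cell line (NTP) seeded, rested 6 h at 37 C/5% CO2, then pinned with Tox21 compounds in DMSO. After 18 h at 37 C, ONE-Glo luciferase luminescence was read following 30 min at room temperature.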
# [13] = qHTS assay to identify small molecule agonists of the TGF-beta/Smad signaling pathway - cell viability counter screen (AID 1346829); further: nearly all actives have a fitted effect of over 45% in size; further: potency means the concentration at half of the fitted maximal effect
# Outline: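 Same-well cytotoxicity: CellTiter-Glo added after the 2 hr room-temperature beta-lactamase substrate step, luminescence measured 30 min later; cells had 5 hr of compound at 37 C.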
# [14] = target: Nuclear receptor subfamily 1 group I member 2 (Rattus norvegicus) (UniProt Q9R1A7); assay: Rat pregnane X receptor (rPXR) activation by small molecules, qHTS assay (AID 1346983); details: rPXR luciferase reporter cells, One-Glo luminescence, 24 h; max activation: stronger effect = higher value; further: on the % scale 0 is the no-effect control and ±100 the full control effect; nearly all actives have a fitted effect of over 20% in size
# Outline: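 Cell-based rPXR luciferase reporter assay, 2,000 cells per well, rested 5hr at 37 C before compound addition in DMSO, then 24 hr at 37 C. One-Glo reagent was added and luminescence read after 30 min at room temperature.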
# [15] = target: Nuclear receptor subfamily 1 group I member 2 (Homo sapiens) (UniProt O75469); assay: Human pregnane X receptor (PXR) activation by small molecules, qHTS assay (AID 1346985); further: nearly all actives have a fitted effect of over 40% in size; further: potency means the concentration at half of the fitted maximal effect
# Outline: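 DPX-2 cells (HepG2 co-transfected with a PXR response element and a CYP3A4-promoter luciferase construct) were seeded at 2,000 per well, rested 5 hr at 37C, then exposed to DMSO-dissolved compounds for 24 hr. Activation was read as luciferase luminescence.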
# [16] = target: Androgen receptor (Homo sapiens) (UniProt P10275); assay: qHTS assay to identify small molecule agonists of the androgen receptor (AR) signaling pathway in the presence of an antagonist (AID 1259381; calls by dose curve; further: potency means the concentration at half of the fitted maximal effect; nearly all actives have a fitted effect of over 15% in size)
# Outline: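 MDA-kb2 human breast carcinoma cells carrying an MMTV-luciferase reporter (AR- and GR-responsive) were treated with compounds at 15 concentrations plus 3.0uM final nilutamide for 16hr at 37C without CO2; luminescence was read after ONE-Glo addition.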
# [17] = target: Nuclear receptor subfamily 1 group I member 2 (Homo sapiens) (UniProt O75469); assay: CYP3A4 induction through human pregnane X receptor (PXR) by small molecules, qHTS assay (AID 1346984); details: DPX-2 HepG2 PXR, CYP3A4-luciferin luminescence, 24 h; activation: at 46.1 µM (top of the series) unless noted; further: nearly all actives have a fitted effect of over 40% in size; further: potency means the concentration at half of the fitted maximal effect
# Outline: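 DPX-2 cells (HepG2 co-transfected with PXR and CYP3A4 promoter-luciferase) treated with compounds 24 h at 37C; luciferin-IPA CYP3A4 substrate 3uM final added for 3 h, then One-Glo; luminescence read. qHTS format.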
# [18] = qHTS assay to identify small molecule antagonists of the farnesoid-X-receptor (FXR) signaling pathway - cell viability counter screen (AID 743221; active means well fitted cell-killing curve with a large enough effect in the repeat runs, not every such curve was filed as active; inconclusive means weak or mixed curves, or effect the other way; inactive means no such curve, though single readings can be large or run the other way; further: on the % scale 0 is the no-effect control and ±100 the full control effect; nearly all actives have a fitted effect of over 50% in size); details: FXR-bla HEK293T viability, CellTiter-Glo luminescence, 16 h; activity change, negative = cytotoxicity: at 62.6 µM (top of the series) unless noted
# Outline: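 Compound effects on cell number were measured as CellTiter-Glo luminescence in HEK 293T cells expressing FXR-UAS-bla, after 16 h at 37 C with 50 uM CDCA (final).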
# [19] = qHTS assay for small molecules that induce genotoxicity in human embryonic kidney cells expressing luciferase-tagged ATAD5 (AID 651632); further: nearly all actives have a fitted effect of over 15% in size; further: potency means the concentration at half of the fitted maximal effect
# Outline: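 HEK293T cells carrying a luciferase reporter tagged to ATAD5 were exposed to compound or DMSO vehicle for 16 hr at 37C, 5% CO2. Amplite was added, and after 30 min at room temperature luciferase activity was read as a marker of ATAD5 induction.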
# [20] = target: Bile acid receptor (Homo sapiens) (UniProt Q96RI1); assay: qHTS assay to identify small molecule agonists of the farnesoid-X-receptor (FXR) signaling pathway (AID 743220; active means well fitted activation curve with a large enough effect in the signal ratio in the repeat runs, not every such curve was filed as active; inconclusive means weak or mixed curves, or effect the other way; the % refers to the signal ratio; further: on the % scale 0 is the no-effect control and ±100 the full control effect); details: HEK293T FXR-UAS-bla, beta-lactamase FRET ratio, 16 h; activation: at 62.6 µM (top of the series) unless noted
# Outline: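 Beta-lactamase reporter under UAS control in GeneBLAzer FXR HEK 293T cells (5000/well) measured with LiveBLAzer FRET substrate after 2 h at room temperature. Compound exposure lasted 16 h at 37C.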
# Tags describe the fitted curve by direction and shape.
# UniProt Q96RI1, sequence (Q96RI1 whole entry, looked up): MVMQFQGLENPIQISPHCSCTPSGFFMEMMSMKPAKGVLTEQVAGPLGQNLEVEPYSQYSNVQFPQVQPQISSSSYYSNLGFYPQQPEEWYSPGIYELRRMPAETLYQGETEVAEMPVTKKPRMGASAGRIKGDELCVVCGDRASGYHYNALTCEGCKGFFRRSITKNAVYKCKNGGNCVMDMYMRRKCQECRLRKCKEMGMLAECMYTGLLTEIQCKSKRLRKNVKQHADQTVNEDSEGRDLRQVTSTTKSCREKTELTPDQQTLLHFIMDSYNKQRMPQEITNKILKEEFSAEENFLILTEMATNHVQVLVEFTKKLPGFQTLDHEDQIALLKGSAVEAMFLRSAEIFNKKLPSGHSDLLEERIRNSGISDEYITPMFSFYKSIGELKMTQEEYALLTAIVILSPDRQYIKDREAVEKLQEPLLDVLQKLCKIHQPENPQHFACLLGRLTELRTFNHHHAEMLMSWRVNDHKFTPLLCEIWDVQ
# UniProt P34981, sequence (P34981 whole entry, looked up): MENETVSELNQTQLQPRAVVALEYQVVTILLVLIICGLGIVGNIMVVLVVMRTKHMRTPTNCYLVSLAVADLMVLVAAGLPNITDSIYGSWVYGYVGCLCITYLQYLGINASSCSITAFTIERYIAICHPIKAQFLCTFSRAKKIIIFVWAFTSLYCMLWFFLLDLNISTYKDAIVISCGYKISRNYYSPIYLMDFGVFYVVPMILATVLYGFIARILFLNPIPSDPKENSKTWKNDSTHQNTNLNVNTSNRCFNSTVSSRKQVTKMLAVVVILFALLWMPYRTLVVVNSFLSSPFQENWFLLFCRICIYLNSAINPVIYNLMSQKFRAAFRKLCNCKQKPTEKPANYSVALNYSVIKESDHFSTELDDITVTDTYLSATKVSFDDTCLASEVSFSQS
# UniProt P10275, sequence (P10275 whole entry, looked up): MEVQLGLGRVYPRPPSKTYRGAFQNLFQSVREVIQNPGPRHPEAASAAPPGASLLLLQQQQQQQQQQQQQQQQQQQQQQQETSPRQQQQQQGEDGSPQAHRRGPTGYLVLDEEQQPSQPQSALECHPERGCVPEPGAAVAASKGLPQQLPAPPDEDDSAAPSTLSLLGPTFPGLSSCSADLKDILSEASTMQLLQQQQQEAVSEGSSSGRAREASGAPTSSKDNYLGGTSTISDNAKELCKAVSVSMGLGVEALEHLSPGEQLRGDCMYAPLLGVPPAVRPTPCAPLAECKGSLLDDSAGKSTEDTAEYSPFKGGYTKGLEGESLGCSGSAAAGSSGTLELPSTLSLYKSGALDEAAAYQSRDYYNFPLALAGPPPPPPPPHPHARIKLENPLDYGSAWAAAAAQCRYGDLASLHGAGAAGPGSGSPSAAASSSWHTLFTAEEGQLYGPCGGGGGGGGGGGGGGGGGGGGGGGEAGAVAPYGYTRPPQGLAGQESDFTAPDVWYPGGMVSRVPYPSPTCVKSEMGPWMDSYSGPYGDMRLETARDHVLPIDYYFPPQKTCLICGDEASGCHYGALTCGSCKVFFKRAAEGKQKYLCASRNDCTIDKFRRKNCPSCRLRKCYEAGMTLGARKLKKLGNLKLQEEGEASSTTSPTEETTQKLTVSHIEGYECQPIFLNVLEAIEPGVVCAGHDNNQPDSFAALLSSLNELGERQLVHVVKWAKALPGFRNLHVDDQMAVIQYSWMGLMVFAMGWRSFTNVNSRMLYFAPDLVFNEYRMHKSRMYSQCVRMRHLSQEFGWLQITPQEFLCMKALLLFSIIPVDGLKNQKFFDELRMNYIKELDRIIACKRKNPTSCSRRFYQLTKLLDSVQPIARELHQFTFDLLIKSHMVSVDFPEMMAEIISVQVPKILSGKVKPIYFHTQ
# UniProt P03372, sequence (P03372 whole entry, looked up): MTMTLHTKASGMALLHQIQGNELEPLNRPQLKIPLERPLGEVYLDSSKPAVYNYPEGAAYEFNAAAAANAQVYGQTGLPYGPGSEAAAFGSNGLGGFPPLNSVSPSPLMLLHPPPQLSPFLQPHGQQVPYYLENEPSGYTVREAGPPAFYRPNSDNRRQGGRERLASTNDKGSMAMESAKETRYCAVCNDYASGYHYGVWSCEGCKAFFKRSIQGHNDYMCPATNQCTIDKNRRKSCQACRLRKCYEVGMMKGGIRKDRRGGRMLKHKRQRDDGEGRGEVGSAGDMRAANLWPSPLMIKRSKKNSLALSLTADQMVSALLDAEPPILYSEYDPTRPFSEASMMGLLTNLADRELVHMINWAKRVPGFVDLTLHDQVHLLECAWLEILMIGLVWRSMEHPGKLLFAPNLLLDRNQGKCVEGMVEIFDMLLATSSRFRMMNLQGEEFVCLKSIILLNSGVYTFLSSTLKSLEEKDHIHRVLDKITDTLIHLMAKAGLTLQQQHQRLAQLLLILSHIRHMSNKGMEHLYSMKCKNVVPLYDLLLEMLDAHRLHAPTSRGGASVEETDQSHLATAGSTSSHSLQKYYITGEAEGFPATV
# UniProt Q9R1A7, sequence (Q9R1A7 whole entry, looked up): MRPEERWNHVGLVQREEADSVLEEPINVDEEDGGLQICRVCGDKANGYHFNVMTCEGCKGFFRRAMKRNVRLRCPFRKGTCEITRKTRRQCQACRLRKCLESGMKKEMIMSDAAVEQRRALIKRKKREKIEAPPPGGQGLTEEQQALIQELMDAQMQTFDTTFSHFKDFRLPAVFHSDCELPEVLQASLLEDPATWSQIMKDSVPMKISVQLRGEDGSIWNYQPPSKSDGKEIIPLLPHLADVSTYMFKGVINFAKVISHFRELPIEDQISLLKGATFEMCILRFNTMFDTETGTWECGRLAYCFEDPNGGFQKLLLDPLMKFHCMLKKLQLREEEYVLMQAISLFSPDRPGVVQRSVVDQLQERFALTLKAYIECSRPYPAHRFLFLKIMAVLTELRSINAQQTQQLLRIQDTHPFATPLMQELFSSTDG
smiles,measurement,setting,value
COCCCN1CCC(NC(=O)c2cc(Cl)c(N)c3c2OCC3)CC1,Potency,[1],inactive
FC(F)(F)c1ccccc1,Potency,[2],"inconclusive [rising, full curve, poor fit]"
CCO[Si](CC)(OCC)OCC,Potency,[3],inactive
C=C(C)CCCC,Potency,[4],inactive
NC(=O)Nc1ccc(Cl)cc1,Potency,[5],inactive
Cc1ccccc1OCC(=O)O,Potency,[6],inactive
C=CCn1c(=O)n([C@@H]2O[C@H](CO)[C@@H](O)[C@H]2O)c2nc(N)[nH]c(=O)c21,Potency,[7],inactive
CC(C)OC(=O)OCOP(=O)(CO[C@H](C)Cn1cnc2c(N)ncnc21)OCOC(=O)OC(C)C,Potency,[8],"inconclusive [falling, partial curve, poor fit]"
CC[C@H]1OC(=O)[C@H](C)[C@@H](O[C@H]2C[C@@](C)(OC)[C@@H](O)[C@H](C)O2)[C@H](C)[C@@H](O[C@@H]2O[C@H](C)C[C@H](N(C)C)[C@H]2O)[C@](C)(OC)C[C@@H](C)C(=O)[C@H](C)[C@@H](O)[C@]1(C)O,Potency,[9],inactive
COc1nc(N)nc2nc[nH]c12,Potency,[10],inactive
CC(=O)Nc1ccccc1O,Potency,[8],inactive
Cc1cccc(C)c1O,Potency,[11],"inconclusive [cytotoxic, partial curve, poor fit]"
CS(C)(=O)=O,"activity change, positive = activation",[12],inconclusive: 23.3%
Nc1cc(Cl)cc(S(=O)(=O)O)c1O,Potency,[13],inactive
Cc1nc(C2CCCCC2)c(-c2ccc(S(N)(=O)=O)c(F)c2)o1,Potency,[5],"inconclusive [cytotoxic, partial curve, poor fit]"
Cc1ccc(C(=O)c2ccc(CC(=O)O)n2C)cc1,Potency,[1],"inconclusive [inhibitor, partial curve]"
CNC[C@H](O)c1cccc(O)c1,Potency,[9],inactive
CCC(C)(Oc1ccc(C2(c3ccc(OC(C)(CC)C(=O)O)cc3)CCCCC2)cc1)C(=O)O (centres undefined),max activation,[14],inactive: -0.804%
C[C@@H]1CCC[C@H](C)N1,Potency,[9],inactive
CC(C)CCO,Potency,[11],inactive
same,Potency,[5],"inconclusive [cytotoxic, single point]"
C=C(C)C(=O)OCCOC1CC2CC1C1C=CCC21 (centres undefined),"activity change, positive = activation",[12],inconclusive: 16.4%
Oc1cn2c(n1)Nc1ccc(Cl)c(Cl)c1C2,Potency,[15],inactive
NC(CO)C(=O)NNCc1ccc(O)c(O)c1O (centres undefined),Potency,[16],active: 13.3 µM
c1cnc(N2CCN(Cc3ccc4c(c3)OCO4)CC2)nc1,Potency,[2],"inconclusive [rising, full curve, poor fit]"
Nc1c2c(nc3c1CCC3)CCCC2,Potency,[17],inactive
O=C(O)/C=C\C(=O)O,Potency,[1],inactive
O=S(=O)(O)c1ccc2c(N=Nc3ccc(S(=O)(=O)O)c4ccccc34)c(O)c(S(=O)(=O)O)cc2c1,Potency,[8],active: 13.3 µM
same,"activity change, negative = cytotoxicity",[18],inactive: -3.15% [at 5.95 µM]
CNC(=O)Oc1ccc2c(c1)[C@]1(C)CCN(C)[C@@H]1N2C,Potency,[4],inactive
C=CC(=O)OCCN(CC)CC,Potency,[16],"inconclusive [rising, partial curve]"
CC(C)c1cccc(C(C)C)c1,Potency,[13],"inconclusive [rising, single point]"
O=S(=O)(O)c1cccc2c(S(=O)(=O)O)cccc12,Potency,[10],inactive
N[C@@H](Cc1cc(I)c(Oc2ccc(O)c(I)c2)c(I)c1)C(=O)O,Potency,[15],"inconclusive [activator, single point]"
CCC(C)c1nccnc1OC (centres undefined),Potency,[18],inactive
Nc1[nH]c(=O)ncc1F,Potency,[19],inactive
CC(=O)c1ccc(O)cc1,Potency,[2],inactive
same,Potency,[20],inactive
CC(C)(CO)[C@@H](O)C(=O)NCCC(=O)O,Potency,[19],"inconclusive [activator, partial curve, poor fit]"
O=Cc1ccccc1Cl,Potency,[20],inactive
CCOC(=O)[C@H](CCc1ccccc1)N[C@H]1CS[C@H](c2cccs2)CN(CC(=O)O)C1=O,Potency,[17],"inconclusive [activator, single point]"
same,Potency,[15],"inconclusive [activator, single point]"
CS(=O)(=O)c1ccc(Cl)cc1,"activity change, positive = activation",[12],inconclusive: 11%
CC1(C)C(=O)C(C)(C)C1=O,Potency,[13],inactive

# Reference: PubChem BioAssay (Tox21)
